# PubChem BioAssay (NCATS)
# Several values for one entry are separate records, joined by “and”; a condition that tells them apart may be missing. Equal entries are not always repeated. The shares of active, inactive and inconclusive entries below differ from those in the screen. For some assays here: No potency is given beside an inconclusive call; the fits are too rough. Activity calls are given as the source filed them. Unless noted, calls come from the whole dose curve; as a rule, active = well fitted curve in the direction sought with a large enough effect; inconclusive = small, poorly fitted or top-dose-only effect, or another doubt; inactive = no such curve, though single readings can be large; an effect the other way counts as inactive or inconclusive.
# Legend:
# [1] = molecular target: Cytochrome P450 2D6 (Homo sapiens) (UniProt P10635); assay: qHTS Assay for Inhibitors and Substrates of Cytochrome P450 2D6 (AID 891);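 note: luciferin methyl ether substrate demethylated by CYP2D6 with NADPH regeneration; nearly all actives have a fitted effect of over 60% in size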; note: potency is the fitted concentration of half-maximal effect; for activity change, negative = inhibition: top concentration of the series differs between compounds; % is set by controls: 0 for no effect and ±100 for the full control effect
# How it was run: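 Human CYP2D6 (5 nM) with 30 uM Luciferin-ME EGE (at Km) in 100 mM KPO4, compound preincubated 10 min, then NADPH regeneration system for 60 min at room temperature. Luciferin read by luminescence; normalized to 1.43 uM quinidine.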
# [2] = molecular target: Cytochrome P450 2C19 (Homo sapiens) (UniProt P33261); assay: qHTS Assay for Inhibitors and Substrates of Cytochrome P450 2C19 (AID 899); conditions: recombinant CYP2C19, luciferin-H EGE luminescence; activity, negative = inhibition: at 11.4 µM (top of the series); note: nearly all actives have a fitted effect of over 60% in size; note: potency is the fitted concentration of half-maximal effect; for activity, negative = inhibition: top concentration of the series differs between compounds; % is set by controls: 0 for no effect and ±100 for the full control effect
# How it was run: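 NADPH-dependent conversion of Luciferin-H EGE (10uM, at KM) by 5nM enzyme in 50mM KPO4, 60 min at 37C following 10 min compound preincubation. Stopped with luciferin detection buffer; luminescence read after 20 min.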
# [3] = qHTS Assay for Identification of Small Molecule Agonists for Hypoxia Response Element Signaling Pathway (AID 914; active = well fitted activation curve with a large enough effect in the signal ratio, with a control signal flat, not every such curve was filed as active; inconclusive = small, poorly fitted or top-dose-only effect, or effect the other way, or a change in a side signal; the % refers to the signal ratio; note: potency is the fitted concentration of half-maximal effect; for activation: top concentration of the series differs between compounds; % of control where 0% means no effect); conditions: ME-180 HRE-bla reporter, beta-lactamase ratio, CoCl2, 17 h; activation: stronger effect = higher value
# How it was run: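 AC50 values come from titration-series %Activity, taken as the 460/530nm ratio of CCF4 fluorescence (excitation 405nm). CellSensor HRE-bla ME-180 cells were treated 17 hours at 37 C with compound plus an EC50 level of CoCl2.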
# [4] = qHTS Assay for Identification of Small Molecule Antagonists for NFkB Signaling Pathway (AID 895; active = well fitted inhibition curve with a large enough effect in the signal ratio, with a control signal flat, not every such curve was filed as active; inconclusive = small, poorly fitted or top-dose-only effect, or effect the other way, or a change in a side signal; the % refers to the signal ratio; note: potency is the fitted concentration of half-maximal effect; for activity change, negative = inhibition: % is set by controls: 0 for no effect and ±100 for the full control effect); conditions: NFkB beta-lactamase reporter cells, FRET ratio 460/530, stimulated with 10 pM TNF alpha; activity change, negative = inhibition: at 38.3 µM (top of the series)
# How it was run: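 NFkB-bla ME-180 cervical carcinoma cells with beta-lactamase reporter under NFkB response element; compounds added, then TNF alpha at 10 pM final (EC50), 5 h at 37 C. LiveBLAzer substrate 2 h, room temperature; emission 460/530 nm at 405 nm excitation.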
# [5] = qHTS Assay for Identification of Small Molecule Antagonists for Thrombopoietin (TPO) Signaling Pathway (AID 918); conditions: TPO-dependent cell signaling reporter, antagonist mode; activity change, negative = inhibition: at 38.5 µM (top of the series); note: nearly all actives have a fitted effect of over 60% in size
# How it was run: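 Ba/F3 (murine, hTPO-R, GPIIb-luc reporter); overnight IL-3 withdrawal; cpd + TPO 26 pM final (EC50); 24 h 37 C/5% CO2; Steadylite luminescence after 10 min RT.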
# [6] = qHTS Assay for Identification of Small Molecule Agonists for NFkB Signaling Pathway (AID 928; calls by dose curve); conditions: NFkB beta-lactamase reporter cells, blue/green ratio
# How it was run: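 ME-180 NFkB-bla cells carry a beta-lactamase reporter under an NFkB response element. Compound plus 10 pM TNF alpha (final) was applied for 5 hrs at 37 C. After 2 hrs with LiveBLAzer substrate, 460/530 nm emission was read at 405 nm excitation.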
# [7] = molecular target: Muscarinic acetylcholine receptor M1 (Rattus norvegicus) (UniProt P08482); assay: qHTS Assay for Antagonists of Acetylcholine Muscarinic M1 Receptor: Kinetic Measurement of Intracellular Calcium Response (AID 943);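 note: Fluo-4 calcium signal as peak divided by basal fluorescence over 4 min; nearly all actives have a fitted effect of over 75% in size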
# How it was run: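 Rat M1-CHO cells, 2000/well, overnight → Fluo-4 no-wash dye with probenecid, 1 h 37C → compound 10 min, room temp → basal read 6 s → carbachol EC80 (100 nM) → 4 min kinetic read; peak/basal.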
# [8] = molecular target: Pyruvate kinase PKM (Homo sapiens) (UniProt P14618); assay: qHTS Assay for Activators of Human Muscle Pyruvate Kinase (AID 954; active = well fitted curve in the direction sought with a large enough effect, not every such curve was filed as active; inconclusive = small, poorly fitted or top-dose-only effect, or effect the other way, or another doubt; inactive = no such curve, though single readings can be large or run the other way;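 note: 0% = uninhibited enzyme and -100% = no enzyme or full thiadiazolimine inhibition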)
# How it was run: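 Reaction: 0.1 nM purified PKM2 with 0.5 mM phosphoenolpyruvate and 0.1 mM ADP, room temperature, 1 h. Readout: luciferase-based ATP luminescence after stop reagent. Activators judged against a 0.3 nM enzyme column.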
# Tags give direction and shape of the fitted curve or compound fluorescence and quenching.
# Sequence of UniProt P10635 (P10635 whole entry, looked up): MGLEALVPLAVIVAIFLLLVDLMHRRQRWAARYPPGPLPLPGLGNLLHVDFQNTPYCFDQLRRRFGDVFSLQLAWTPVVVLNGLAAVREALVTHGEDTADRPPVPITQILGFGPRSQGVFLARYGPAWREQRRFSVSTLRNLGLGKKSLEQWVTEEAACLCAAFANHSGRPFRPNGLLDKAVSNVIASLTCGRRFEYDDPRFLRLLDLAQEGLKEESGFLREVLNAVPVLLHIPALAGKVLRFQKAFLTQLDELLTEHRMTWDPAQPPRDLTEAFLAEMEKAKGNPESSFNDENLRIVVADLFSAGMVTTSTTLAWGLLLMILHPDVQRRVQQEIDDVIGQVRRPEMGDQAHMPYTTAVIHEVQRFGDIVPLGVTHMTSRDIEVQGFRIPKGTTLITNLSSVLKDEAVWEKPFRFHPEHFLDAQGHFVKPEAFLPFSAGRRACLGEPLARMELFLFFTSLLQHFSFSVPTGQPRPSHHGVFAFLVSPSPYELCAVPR
# Sequence of UniProt P33261 (P33261 whole entry, looked up): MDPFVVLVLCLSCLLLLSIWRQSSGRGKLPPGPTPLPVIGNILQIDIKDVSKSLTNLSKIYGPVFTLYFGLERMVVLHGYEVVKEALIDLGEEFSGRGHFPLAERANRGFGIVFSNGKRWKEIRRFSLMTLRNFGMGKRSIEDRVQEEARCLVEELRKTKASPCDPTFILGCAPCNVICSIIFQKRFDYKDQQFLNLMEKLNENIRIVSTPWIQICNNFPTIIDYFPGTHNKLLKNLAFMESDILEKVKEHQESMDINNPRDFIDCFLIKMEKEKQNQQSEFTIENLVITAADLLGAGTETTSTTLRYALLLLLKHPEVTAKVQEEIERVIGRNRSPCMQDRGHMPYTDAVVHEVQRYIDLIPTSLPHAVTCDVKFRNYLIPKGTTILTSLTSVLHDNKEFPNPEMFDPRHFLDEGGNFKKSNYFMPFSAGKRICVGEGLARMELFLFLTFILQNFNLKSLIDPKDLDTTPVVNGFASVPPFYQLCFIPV
# Sequence of UniProt P08482 (P08482 whole entry, looked up): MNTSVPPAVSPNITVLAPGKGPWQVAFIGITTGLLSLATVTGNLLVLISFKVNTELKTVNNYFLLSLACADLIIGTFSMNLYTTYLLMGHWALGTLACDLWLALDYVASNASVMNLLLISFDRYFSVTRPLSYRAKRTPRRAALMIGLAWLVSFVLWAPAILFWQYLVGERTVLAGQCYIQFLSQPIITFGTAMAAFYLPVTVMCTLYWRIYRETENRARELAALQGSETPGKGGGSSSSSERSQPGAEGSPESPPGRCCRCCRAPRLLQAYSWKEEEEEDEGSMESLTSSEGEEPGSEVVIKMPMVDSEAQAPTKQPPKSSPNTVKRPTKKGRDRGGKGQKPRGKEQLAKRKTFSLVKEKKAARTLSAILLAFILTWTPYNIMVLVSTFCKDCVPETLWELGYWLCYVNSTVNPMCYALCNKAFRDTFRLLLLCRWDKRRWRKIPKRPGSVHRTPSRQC
# Sequence of UniProt P14618 (P14618 whole entry, looked up): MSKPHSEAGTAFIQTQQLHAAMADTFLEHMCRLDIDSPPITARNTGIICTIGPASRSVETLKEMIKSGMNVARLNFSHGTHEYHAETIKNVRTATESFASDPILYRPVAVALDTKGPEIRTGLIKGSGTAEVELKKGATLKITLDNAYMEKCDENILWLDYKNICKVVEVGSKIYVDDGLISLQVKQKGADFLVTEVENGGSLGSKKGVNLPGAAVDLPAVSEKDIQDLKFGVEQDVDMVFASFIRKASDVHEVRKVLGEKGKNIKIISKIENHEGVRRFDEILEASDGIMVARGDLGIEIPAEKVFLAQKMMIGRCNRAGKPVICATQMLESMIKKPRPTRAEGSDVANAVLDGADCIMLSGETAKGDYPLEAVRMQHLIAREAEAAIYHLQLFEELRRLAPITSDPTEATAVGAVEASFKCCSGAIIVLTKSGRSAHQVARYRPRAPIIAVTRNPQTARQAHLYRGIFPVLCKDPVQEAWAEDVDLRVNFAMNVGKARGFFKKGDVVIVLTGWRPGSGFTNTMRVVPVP
compound,measurement,setting,value
CC(C)CNC(=O)O,Potency,[1],inactive
C=CC[C@@H]1C=C[C@H](O/N=C2\c3cc(OC)ccc3O[C@H](c3cccc(OC)c3)[C@H]2O)[C@H](CO)O1,Potency,[1],"inconclusive [inhibitor, single point]"
same,Potency,[2],"inconclusive [inhibitor, partial curve, poor fit]"
same,activation,[3],inconclusive: -11.3%
O=C1COC(c2ccccc2O)=NN1CCCN1CCCC1,Potency,[1],"inconclusive [inhibitor, single point]"
same,activation,[3],inconclusive: 3.9%
N/C(CC/C(N)=N/O)=N\O,Potency,[1],inactive
CCN(CC)C[C@@H](O)c1ccc2ccc3ccccc3c2c1,Potency,[1],"inconclusive [inhibitor, single point]"
same,activation,[3],inconclusive: -9.08%
CC(C)NCC[C@@H](O)c1cc2ccccc2o1,Potency,[1],"inconclusive [inhibitor, partial curve]"
same,Potency,[3],"inconclusive [inhibitor, full curve]"
C/C(CCC(=O)OC[C@@H]1O[C@H](C#Cc2ccccc2)C=C[C@@H]1Oc1ccc(C)cc1)=N/O[C@@H](C)CN1CCCCc2nc(C)c(C)cc21,Potency,[1],"inconclusive [inhibitor, partial curve]"
same,Potency,[2],"inconclusive [inhibitor, partial curve]"
CN(C)c1ccc2nc3c(C(=O)O)cc(=O)c(O)c-3oc2c1,Potency,[1],"inconclusive [inhibitor, partial curve]"
same,Potency,[2],"inconclusive [inhibitor, single point]"
COc1cccc([C@@H]2Oc3ccc(OC)cc3/C(=N/O[C@@H](C)CN3CCCCc4nc(C)c(C)cc43)[C@@H]2O)c1,Potency,[1],"inconclusive [inhibitor, partial curve]"
same,Potency,[2],"inconclusive [inhibitor, full curve]"
O=C(Nc1cccc2ccccc12)c1ccccc1,Potency,[1],"inconclusive [inhibitor, full curve, poor fit]"
same,Potency,[2],"inconclusive [inhibitor, partial curve]"
O=[N+]([O-])/C=C\c1cc2ccccc2[nH]1,Potency,[1],"inconclusive [inhibitor, partial curve]"
same,Potency,[2],"inconclusive [inhibitor, single point]"
same,activation,[3],inconclusive: -23.4%
COCC(=O)N1CCC[C@@]2(CCN(Cc3ccccc3OC)C2)C1,Potency,[1],active: 6.31 µM
same,activation,[3],inactive: -5.2%
COC(=O)NC(CC(C)=O)c1cccs1 (stereo not drawn),Potency,[1],inactive
COc1ccc(COC(=O)N/N=C2/C[C@@H](O)[C@@H](O)[C@@H]3[C@@H]4C(=O)N(c5cccc(Oc6ccccc6)c5)C(=O)[C@H]4CC[C@H]23)cc1,Potency,[1],"inconclusive [inhibitor, partial curve]"
same,activation,[3],inactive: -10.1%
C=C(C)C(O)/C=C/C=C/c1ccccc1 (stereo not drawn),Potency,[1],inactive
same,Potency,[2],inactive
CC(C)NC(=O)N1CCCC2(CCN(C(=O)c3cccc(F)c3)CC2)C1,Potency,[1],inactive
same,Potency,[2],inactive
COc1ccc(OC2C=CC(C#Cc3ccc(F)cc3F)OC2CO)cc1 (stereo not drawn),Potency,[1],inactive
NCCCc1ccc2oc3ccccc3c2c1,Potency,[1],"inconclusive [inhibitor, partial curve]"
same,Potency,[2],"inconclusive [inhibitor, single point]"
CN(C)CCN(c1ccccn1)c1ccccn1,Potency,[1],"inconclusive [inhibitor, partial curve]"
same,Potency,[2],inactive
same,activation,[3],inconclusive: 12.1%
Cc1cccc(C)c1OC[C@H](C)N,Potency,[1],"inconclusive [inhibitor, partial curve]"
same,Potency,[4],active: 0.794 µM
same,activation,[3],inactive: -2.33% and inactive: -23.1%
same,"activity change, negative = inhibition",[5],inconclusive: -9.1% [phenotype inactive]
same,Potency,[6],"inconclusive [inhibitor, partial curve]"
NCCC(=O)N[C@@H](Cc1cnc[nH]1)C(=O)O,Potency,[1],inactive
same,Potency,[2],inactive
O=C1[C@H]2[C@H]3[C@H](O)[C@H](O)C/C(=N/OCc4ccccc4)[C@@H]3CC[C@@H]2C(=O)N1Cc1ccc2c(c1)OCO2,Potency,[1],"inconclusive [inhibitor, partial curve]"
same,Potency,[2],"inconclusive [inhibitor, single point]"
C[C@H](O)[C@H](O)[C@@H](O)c1cnc2nc(N)[nH]c(=O)c2n1,Potency,[1],inactive
C/C(CCN1CCCc2nc(C)c(C)cc21)=N\OC[C@@H](O)COCc1ccco1,Potency,[1],"inconclusive [inhibitor, single point]"
same,activation,[3],inconclusive: -8.17%
OC[C@@H]1NC[C@@H](O)[C@@H](O)[C@H]1O,Potency,[4],inactive
same,"activity change, negative = inhibition",[5],inconclusive: -11.8% [phenotype inactive]
same,Potency,[7],inactive
same,Potency,[8],inactive
